Out of some 52,000 compounds screened, about 1,700 (3.3%) were called active. Cut-off read from the data, not from the text of the source: active = survival mostly below about 52% (no sharp cut-off); inactive = mostly above about 56%. The list shows a part of the results.
tested on: Wild type; assay: growth inhibition of S. aureus wild type versus tarO mutant, primary screen, teichoic acid synthesis inhibitors, RN4220, OD600 (AID 463173); conditions: S. aureus RN4220 wild type/DeltatarO growth, OD600, 18 h, active compounds read low, screened at 18.75 µg/mL (by protocol)

Row | SMILES | survival
1 | Cc1ccc(C)c(N2CCN(C(=O)C(CC(C)C)NS(=O)(=O)c3ccc4nc(C)sc4c3)CC2)c1 (stereo unspecified) | inactive: 118%
2 | Cc1cc(F)ccc1NC(=O)CCn1nc(C)c(S(=O)(=O)N2CCCCC2)c1C | inactive: 72%
3 | COc1cc(C(=O)NCC#N)cc(OC)c1OC | inactive: 97%
4 | COc1ccccc1C(=O)Nc1ccc(S(=O)(=O)Nc2ncccn2)cc1 | inactive: 80%
5 | CCOc1ccc(-c2cc(C(=O)NCCc3ccc(OC)c(OC)c3)c3c(-c4ccc(F)cc4)[nH]nc3n2)cc1 | inactive: 94%
6 | COc1cccc(-c2nc(SCC(=O)Nc3ccc4c(c3)OCCO4)c(-c3ccc(C)cc3)[nH]2)c1 | inactive: 77%
7 | O=C1OCCC1Sc1nc2ccccc2n1Cc1ccccc1 (stereo unspecified) | inactive: 114%
8 | COc1ccc(Cl)cc1NC(=O)c1cc(S(=O)(=O)N(C)Cc2ccccc2)ccc1F | inactive: 91%
9 | Cc1cccc(OCCCn2c(CCNC(=O)C3CCCCC3)nc3ccccc32)c1 | inactive: 34%
10 | COc1ccccc1CN(Cc1c(Cl)cccc1Cl)S(=O)(=O)c1ccc(Br)cc1 | inactive: 74%
11 | Cn1c(=O)[nH]c(=O)c2c1nc(CN1CCN(c3ccccc3F)CC1)n2Cc1ccc(F)cc1 | inactive: 120%
12 | Cc1ccc(C)c(N2CCN(c3nc4ccc(C(=O)c5ccccc5)cc4n4cnnc34)CC2)c1 | inactive: 100%
13 | CCOC(=O)c1cnc2c(C)cccc2c1Nc1ccc(OC(C)C)cc1 | active: 3%
14 | O=C(NCCc1ccc(Cl)cc1)c1ccc(CSCc2cccc(Cl)c2)o1 | inactive: 99%
15 | CCOc1cc(C2NC(=O)NC(C)=C2C(=O)Nc2ccc(F)cc2)ccc1O (stereo unspecified) | inactive: 69%
16 | Cn1cc(S(=O)(=O)c2cccc(Cl)c2)c(=O)c2cc(F)c(N3CCCCC3)cc21 | inactive: 60%
17 | CCN(CC)c1ncnc2ccc(Br)cc12 | inactive: 109%
18 | Cc1ccc(Cl)cc1NC(=O)c1oc2ccc(S(=O)(=O)N3CCCCCC3)cc2c1C | inactive: 92%
19 | Cc1cc(C)cc(OCC(=O)N2CCC(c3nc4ccccc4s3)CC2)c1 | inactive: 82%
20 | Cc1cc(C(=O)O)c(CN2CCCC2)o1 | inactive: 109%
21 | O=C(O)CCCC(=O)n1cnc2ccccc21 | inactive: 108%
22 | CCc1cccc(C)c1NC(=O)CSc1nc2c(c(=O)[nH]1)CCC2 | inactive: 110%
23 | CCCN1C(=O)C(Cc2nc3ccccc3c(=O)n2-c2ccc(OC)cc2)c2cc(C)ccc21 (stereo unspecified) | inactive: 80%

Row | SMILES | survival
24 | CCCN(C(=O)Nc1cn(CC(C)C)c(=O)c2ccccc12)c1ccc(F)cc1 | inactive: 85%
25 | O=C(Nc1ccccc1)NC1(C(=O)NCc2ccc3c(c2)OCO3)CCCCC1 | inactive: 106%
26 | Cc1ccc2oc(=O)n(CCNC(=O)Nc3ccc(Cl)cc3)c2c1 | inactive: 79%
27 | Cc1cc(C(=O)NCc2ccccc2Cl)c2c(C)nn(-c3cccc(F)c3)c2n1 | inactive: 74%
28 | O=C(NCC(c1ccco1)S(=O)(=O)c1cccs1)c1ccc(Cl)cc1 (stereo unspecified) | inactive: 81%
29 | CC(=O)N1CCc2c(sc3c2c(=O)n(-c2ccc(C)cc2)c(=O)n3Cc2ccccc2C)C1 | inactive: 129%
30 | CCCCNC(=O)c1ccc2c(c1)NC(=O)C(CS(=O)(=O)Cc1ccc(C)cc1)N2 (stereo unspecified) | inactive: 72%
31 | Cc1ccc(C(=O)Nc2ccc3oc(-c4ccccc4C)nc3c2)cc1 | inactive: 84%
32 | S=c1[nH]c2ccc3ccccc3c2[nH]1 | inactive: 105%
33 | Cc1cc(NC(=O)c2cccn2-c2nnc(N3CCCCC3)s2)ccc1Br | inactive: 121%
34 | CCN1CCN(c2oc(/C=C/c3cc(OC)c(OC)c(OC)c3)nc2C#N)CC1 | inactive: 91%
35 | O=C(NCc1cccs1)c1c[nH]c2c(F)cccc2c1=O | inactive: 100%
36 | CCCCN(C)S(=O)(=O)c1ccc(C(=O)Nc2ccc(-c3nc4ccc(C)cc4s3)cc2)cc1 | inactive: 87%
37 | CC(C)C(=O)OCc1cc(=O)n2nc(C3CC3)sc2n1 | inactive: 93%
38 | COc1cc(OC)c(C2C(C(=O)Nc3ccccc3)=C(C)Nc3ncnn32)cc1OC (stereo unspecified) | inactive: 74%
39 | COc1ccc(-c2noc(CC(=O)Nc3ccc(C)c(F)c3)n2)cc1 | inactive: 88%
40 | Cc1cc(Cl)ccc1NC(=O)CCCn1nc(C)c2c(C)n(-c3ccccc3)nc2c1=O | inactive: 118%
41 | CCc1ccc(C2c3c(oc4cc(C)c(C)cc4c3=O)C(=O)N2c2nc(C)c(C(=O)OC)s2)cc1 (stereo unspecified) | inactive: 80%
42 | CCC1CN(C(=O)Nc2cc(Cl)c(OC)cc2OC)c2ccccc2O1 (stereo unspecified) | inactive: 85%
43 | COc1cc(C2Nc3ccccc3-c3nnc(SCc4ccc(C)cc4)nc3O2)cc(OC)c1O (stereo unspecified) | inactive: 124%
44 | CCc1nn(CC(=O)NCCCc2ccccc2)c(=O)c2cc3ccccc3n12 | inactive: 83%
45 | Cc1c(Cl)cccc1NC(=O)Cn1c(=O)n(Cc2nc(-c3ccccc3)no2)c(=O)c2cc3c(cc21)OCO3 | inactive: 135%
46 | CSc1ccc(CCNC(=O)c2cc3cc4cc(C)ccc4nc3s2)cc1 | inactive: 148%

Row | SMILES | survival
47 | Cc1ccc(Cn2c(=O)c3cccnc3n(CC(=O)Nc3cc(Cl)ccc3C)c2=O)cc1 | inactive: 82%
48 | CCCC(=O)Nc1cccc(-c2cn3c(C)csc3n2)c1 | active: -6%
49 | CCc1ccc(CNC(=O)c2cnc3c(C)cccn3c2=O)cc1 | inactive: 66%
50 | Cc1c(Cl)cccc1NC(=O)C1CCN(c2nc3ccccc3[nH]2)CC1 | inactive: 69%
51 | Cc1ccc(Nc2cc(C)c(C#N)c3nc4ccccc4n23)c(C)c1 | inactive: 67%
52 | Cc1ccccc1N1CC(c2nnc(NC(=O)c3ccco3)s2)CC1=O (stereo unspecified) | inactive: 94%
53 | CCn1c(C(NC(=O)c2ccc(C)cc2)C(C)C)n[nH]c1=S (stereo unspecified) | inactive: 116%
54 | CCOC(=O)C1CCCN(S(=O)(=O)c2ccc(OC)cc2)C1 (stereo unspecified) | inactive: 110%
55 | CCn1c(SCC(N)=O)nc2ccccc21 | inactive: 116%
56 | Cc1cccc(N2CCN(Cc3cc(=O)oc4cc(C)ccc34)CC2C)c1 (stereo unspecified) | inactive: 84%
57 | CC(C)c1ccc(CNc2nc(-c3ccco3)nn2S(=O)(=O)c2ccc(F)cc2)cc1 | inactive: 88%
58 | CCCC1(C(=O)OC)NC(c2ccco2)C2C(=O)N(C)C(=O)C21 (stereo unspecified) | inactive: 106%
59 | Cc1cccc(NC(=O)N2CCC(N3CCN(Cc4ccccc4)C(=O)C3=O)CC2)c1C | inactive: 65%
60 | Cc1cc(C)cc(NC(=O)CN2CCC(NC(=O)Cc3ccccc3)CC2)c1 | inactive: 111%
61 | Cc1sc2nc3n(c(=O)c2c1C)NC(=O)CC3 | inactive: 106%
62 | CC(C)(C)C1CCc2onc(C(=O)Nc3sc4c(c3C#N)CCCC4)c2C1 (stereo unspecified) | inactive: 115%
63 | CCOc1ccccc1C(=O)NC1CCNCC1 | inactive: 109%
64 | COc1cc(N)c(Cc2nccc3cc(OC)c(OC)cc23)cc1OC | inactive: 106%
65 | CCc1ccc(N2CC(C(=O)NC(C)CC)CC2=O)cc1 (stereo unspecified) | inactive: 100%
66 | COc1ccccc1-c1coc2c(CN(C)C)c(O)ccc2c1=O | inactive: 112%
67 | O=C(c1cc(-c2ccc(F)cc2)on1)N1CCN(c2ccc(F)cc2)CC1 | inactive: 85%
68 | CCCC1N=C2c3ccccc3N=C(SCC(=O)NCCc3ccc(Cl)cc3)N2C1=O (stereo unspecified) | inactive: 92%
69 | CCCCNS(=O)(=O)c1ccc2nc(-c3cccnc3)cc(C(=O)NC(C)C)c2c1 | inactive: 84%

Row | SMILES | survival
70 | Cn1nc(C(=O)N2CCN(c3ccccc3F)CC2)c2c1-c1ccccc1S(=O)(=O)C2 | inactive: 81%
71 | O=C(CN1C(=O)c2cccc3cccc1c23)Nc1ccccc1Br | inactive: 73%
72 | CCn1c(C(=O)Nc2ccc(C)cc2C)cc2sc(Cl)cc21 | inactive: 68%
73 | Cc1oc2ncnc(N3CCOCC3)c2c1C(=O)NCCc1ccccc1 | inactive: 85%
74 | CCOC(=O)c1ccccc1NC(=O)c1cc2ccc3cccnc3c2[nH]1 | inactive: 121%
75 | CC(C)NC(=O)c1ccc2c(c1)nc1n2CCCCC1 | inactive: 77%
76 | CCOC(=O)COc1ccc(C)cc1C(=O)c1ccn2nc(-c3ccc(Cl)cc3)cc2n1 | inactive: 105%
77 | Cc1ccc(Nc2nc3ccc(C(=O)c4ccccc4)cc3n3c(C)nnc23)c(C)c1 | inactive: 79%
78 | Cc1sc2ncn(CC(=O)N(C)c3ccc(C(C)C)cc3)c(=O)c2c1S(=O)(=O)N1CCC(C)CC1 | inactive: 82%
79 | COc1ccc(-c2noc(CC(=O)Nc3cc(OC)ccc3OC)n2)cc1 | inactive: 89%
80 | NC(=O)c1cc2c(ccc3ccccc32)oc1=O | inactive: 113%
81 | Cc1ccc(NS(=O)(=O)c2ccc3nc(-c4ccccc4)[nH]c3c2)c(Br)c1 | inactive: 63%
82 | CC1CCC(NC(=O)C2(C)Cc3ccccc3C(=O)N2Cc2ccc(Cl)cc2)CC1 (stereo unspecified) | inactive: 81%
83 | CC(=O)c1cccc(NC(=O)CN2C(=O)CC(c3ccc(C)cc3C)=Nc3ccccc32)c1 | inactive: 152%
84 | CCCn1c(=O)c2sccc2n2c(CCCC(=O)N3CCN(c4cccc(Cl)c4)CC3)nnc12 | inactive: 86%
85 | CCCCN(CC)CCCNC(=O)c1cn(CC)c2ccc(S(=O)(=O)N3CCc4ccccc4C3)cc2c1=O | inactive: 76%
86 | O=C(/C=C/c1ccc(Cl)cc1)N1CCC(c2nc3ccccc3o2)CC1 | inactive: 120%
87 | CCc1ccccc1NC(=O)CCC(=O)N1CC(C)Oc2ccc(C)cc21 (stereo unspecified) | inactive: 80%
88 | COc1ccc(CCNCc2c(C(=O)O)c(C)n(Cc3cccc(Cl)c3)c2C)c(OC)c1OC | inactive: 88%
89 | CCc1cc2c(cc3c(=O)n(CC(=O)N4CCN(c5cccc(C)c5C)CC4)nc(CC)n32)s1 | inactive: 74%
90 | Cc1ccc(C)c(N2CCN(S(=O)(=O)c3ccc(C(=O)N(C)C)s3)CC2)c1 | inactive: 75%
91 | Cc1nc2cc(N3CCN(C)CC3)c(NC(=O)C(C)(C)C)cc2c(=O)n1Cc1ccccc1 | inactive: 110%
